First the molecules themselves.
B1: Pac11 1–86 L4A,K5A,Q6A (domain or fragment, UniProt P40960 1-86)
chain: MERAAALEEKRRQLKELRERRKQASLFPGSETMGHHPTEVHAKATMVSVSVQTDMEEGSKIQEPQSAYLRRKEVITYDKGIQTDQI
B2: Pac11 1–86 R12A,Q13A,L14A (domain or fragment, UniProt P40960 1-86)
chain: B1 chain with A4L, A5K, A6Q, R12A, Q13A, L14A
B3: Pac11 1–86 E19A,R20A,R21A (domain or fragment, UniProt P40960 1-86)
chain: B1 chain with A4L, A5K, A6Q, E19A, R20A, R21A
B4: Pac11 1–86 Q6A,L7A,E8A (domain or fragment, UniProt P40960 1-86)
chain: B1 chain with A4L, A5K, L7A, E8A
B5: Pac11 1–86 E9A,K10A,R11A (domain or fragment, UniProt P40960 1-86)
chain: B1 chain with A4L, A5K, A6Q, E9A, K10A, R11A
B6: Pac11 1–86 L17A,R18A (domain or fragment, UniProt P40960 1-86)
chain: B1 chain with A4L, A5K, A6Q, L17A, R18A

Chains of the proteins cited; added tags and fusions are not shown. Residues count along the entry.
UniProt P28023, residues 381-530: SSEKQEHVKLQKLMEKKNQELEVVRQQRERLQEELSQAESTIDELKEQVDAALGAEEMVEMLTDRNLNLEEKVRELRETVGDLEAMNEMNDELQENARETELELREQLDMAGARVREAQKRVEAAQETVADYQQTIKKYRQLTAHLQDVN

Residue numbers refer to the chain shown, from its start. Numbers in names are those of the source. Results are given in words; binding and its absence hold for the method and conditions named.

This test has as its target dynactin p150^Glued coiled-coil 1B (CC1B), residues 381–530 (R. norvegicus) (UniProt P28023). The test can be described thus: native gel or EMSA; native PAGE; purified proteins incubated at 25°C for five minutes in equimolar or two fold molar excess; 12% gels with a stacking gel at pH 7.4 or 8–25% gradient gels; both purified. A general note: Mobility shift assays separate free from complexed probe on a gel.
With B1, the binding entry was “no binding”.

On to B2, for which the binding entry is “no binding”.

Regarding B3, the binding result was “no binding”.

For the molecule B4, the binding result was “no binding”.

For B5, the binding entry is “no binding”.

For B6, the binding result is listed as “no binding”.

The values are drawn from PMC3618186.
